Measured values as given in the supplement of paper PMC4967469.
pIC50: −log10 of the molar value. A lower IC50 marks a more sensitive line; a fit beyond the top or the lowest dose is shown as a bound at that dose. The AUC spans the tested range (256-fold, ending at the top dose) of the same fit; the more sensitive the line, the further below 1. Any top dose called inferred was calculated from the reported fits.

What was measured:
Experiment in all cases: Viability of human cancer cell lines after 72 h of drug (GDSC screen)
[1] = compound: CCN1CCN(Cc2ccc(NC(=O)c3ccc(C)c(Oc4ccnc5[nH]ccc45)c3)cc2C(F)(F)F)CC1 [NG-25]; conditions: top dose 10.24 µM; top dose inferred
Protocol: (§1)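 Human cancer cell lines in 384-well plates, medium with 10% serum, drug for 72 h over a 256-fold dose range (nine 2-fold or five 4-fold steps up to the top dose). Adherent lines were fixed and stained with the nucleic acid dye Syto60, suspension lines read with resazurin; signal relative to control wells, capped at 0 and 100%. One two-parameter sigmoid per drug and line, fitted in a mixed model over all curves with the slope shared within a line.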

[2] = compound: CCc1cc(Nc2nccc(-c3c(-c4ccc(OC)c(C(=O)Nc5c(F)cccc5F)c4)nc4ccccn34)n2)c(OC)cc1N1CCC(N2CCN(S(C)(=O)=O)CC2)CC1 [GSK-1904529A]; conditions: top dose 1.024 µM; top dose inferred
Protocol: as §1

[3] = compound: COc1cc(C)c(Sc2cnc(NC(=O)c3ccc(CNC(C)C(C)(C)C)cc3)s2)cc1C(=O)N1CCN(C(C)=O)CC1 [BMS-509744]; conditions: top dose 10.24 µM; top dose inferred
Protocol: as §1

[4] = compound: COc1ccccc1S(=O)(=O)Nc1ccc2c(c1)CN(C)C(=O)N2 [PFI-1]; conditions: top dose 10 µM; top dose inferred
Protocol: as §1

[5] = compound: Cn1cncc1[C@@](N)(c1ccc(Cl)cc1)c1ccc2c(c1)c(-c1cccc(Cl)c1)cc(=O)n2C [Tipifarnib]; conditions: top dose 16 µM; top dose inferred
Protocol: as §1

Row | Cell Line | AUC [1] | pIC50 [1] | AUC [2] | pIC50 [2] | AUC [3] | pIC50 [3] | AUC [4] | pIC50 [4] | AUC [5] | pIC50 [5]
1 | LAMA-84 (chronic myeloid leukaemia, suspension) | 0.035 | > 7.40 | 0.985 | < 5.99 | 0.878 | < 4.99 | 0.977 | < 5.00 | 0.739 | 5.31
2 | LAN-6 (neuroblastoma, adherent) | 0.895 | < 4.99 | 0.969 | < 5.99 | 0.817 | 5.15 | 0.96 | < 5.00 | 0.881 | < 4.80
3 | LB373-MEL-D (melanoma, adherent) | 0.924 | < 4.99 | 0.987 | < 5.99 | 0.913 | < 4.99 | 0.885 | < 5.00 | 0.729 | 5.35
4 | LB771-HNC (head and neck, adherent) | 0.873 | < 4.99 | 0.962 | < 5.99 | 0.845 | < 4.99 | 0.747 | 5.41 | 0.543 | 5.87
5 | LB831-BLC (bladder, adherent) | 0.747 | 5.48 | 0.959 | < 5.99 | 0.775 | 5.39 | 0.875 | < 5.00 | 0.648 | 5.59
6 | LB996-RCC (kidney, adherent) | 0.966 | < 4.99 | 0.931 | < 5.99 | 0.9 | < 4.99 | 0.814 | 5.18 | 0.722 | 5.32
7 | LB1047-RCC (kidney, adherent) | 0.75 | 5.43 | 0.955 | < 5.99 | 0.896 | < 4.99 | 0.807 | 5.23 | 0.862 | < 4.80
8 | LB2241-RCC (kidney, adherent) | 0.962 | < 4.99 | 0.966 | < 5.99 | 0.957 | < 4.99 | 0.826 | 5.15 | 0.684 | 5.46
9 | LB2518-MEL (melanoma, adherent) | 0.966 | < 4.99 | 0.986 | < 5.99 | 0.913 | < 4.99 | 0.927 | < 5.00 | 0.573 | 5.80
10 | LC4-1 (lymphoblastic leukaemia, suspension) | 0.743 | 5.46 | 0.951 | < 5.99 | 0.876 | < 4.99 | 0.754 | 5.43 | 0.584 | 5.76
11 | LC-2-ad (lung adenocarcinoma, adherent) | 0.759 | 5.44 | 0.975 | < 5.99 | 0.727 | 5.54 | 0.906 | < 5.00 | 0.483 | 6.05
12 | LNCaP-Clone-FGC (prostate, adherent) | 0.866 | < 4.99 | 0.97 | < 5.99 | 0.967 | < 4.99 | 0.813 | 5.19 | 0.822 | 4.95
13 | LOUCY (T-cell lymphoblastic leukaemia, suspension) | 0.536 | 6.10 | 0.991 | < 5.99 | 0.888 | 5.11 | 0.74 | 5.59 | 0.909 | 4.82
14 | LOXIMVI (melanoma, semi-adherent) | 0.958 | < 4.99 | 0.935 | < 5.99 | 0.948 | < 4.99 | 0.845 | 5.22 | 0.942 | < 4.80
15 | LP-1 (myeloma, suspension) | 0.864 | 5.18 | 0.988 | < 5.99 | 0.988 | < 4.99 | 0.977 | < 5.00 | 0.894 | 4.87
16 | LS-123 (large intestine, adherent) | 0.958 | < 4.99 | 0.922 | < 5.99 | 0.925 | < 4.99 | 0.935 | < 5.00 | 0.573 | 5.77
17 | LS-411N (large intestine, adherent) | 0.882 | < 4.99 | 0.955 | < 5.99 | 0.766 | 5.34 | 0.847 | 5.00 | 0.517 | 5.95
18 | LS-513 (large intestine, adherent) | 0.789 | 5.33 | 0.983 | < 5.99 | 0.971 | < 4.99 | 0.966 | < 5.00 | 0.932 | < 4.80
19 | LS-1034 (large intestine, adherent) | 0.8 | 5.26 | 0.986 | < 5.99 | 0.847 | 5.06 | 0.921 | < 5.00 | 0.586 | 5.75
20 | LU-65 (large cell lung carcinoma, suspension) | 0.879 | < 4.99 | 0.914 | < 5.99 | 0.922 | < 4.99 | 0.978 | < 5.00 | 0.858 | < 4.80

Row | Cell Line | AUC [1] | pIC50 [1] | AUC [2] | pIC50 [2] | AUC [3] | pIC50 [3] | AUC [4] | pIC50 [4] | AUC [5] | pIC50 [5]
21 | LU-134-A (small cell lung carcinoma, suspension) | 0.904 | < 4.99 | 0.982 | < 5.99 | 0.889 | < 4.99 | 0.874 | < 5.00 | 0.952 | < 4.80
22 | LU-139 (small cell lung carcinoma, suspension) | 0.78 | 5.26 | 0.97 | < 5.99 | 0.938 | < 4.99 | 0.892 | < 5.00 | 0.897 | < 4.80
23 | LU-165 (small cell lung carcinoma, suspension) | 0.969 | < 4.99 | 0.978 | < 5.99 | 0.953 | < 4.99 | 0.962 | < 5.00 | 0.968 | < 4.80
24 | LXF-289 (lung adenocarcinoma, adherent) | 0.89 | < 4.99 | 0.982 | < 5.99 | 0.818 | 5.25 | 0.9 | < 5.00 | 0.66 | 5.56
25 | MC116 (B-cell lymphoma, suspension) | 0.804 | 5.46 | 0.998 | < 5.99 | 0.987 | < 4.99 | 0.976 | < 5.00 | 0.753 | 5.39
26 | MC-CAR (haematopoietic neoplasm, suspension) | 0.769 | 5.46 | 0.988 | < 5.99 | 0.963 | < 4.99 | 0.791 | 5.40 | 0.649 | 5.61
27 | MDST8 (large intestine, adherent) | 0.964 | < 4.99 | 0.988 | < 5.99 | 0.957 | < 4.99 | 0.918 | < 5.00 | 0.828 | 5.01
28 | ME-1 (acute myeloid leukaemia, suspension) | 0.908 | < 4.99 | 0.989 | < 5.99 | 0.969 | < 4.99 | 0.949 | < 5.00 | 0.882 | < 4.80
29 | MEG-01 (chronic myeloid leukaemia, suspension) | 0.034 | > 7.40 | 0.988 | < 5.99 | 0.969 | < 4.99 | 0.765 | 5.46 | 0.651 | 5.59
30 | MFH-ino (soft tissue, adherent) | 0.895 | < 4.99 | 0.982 | < 5.99 | 0.735 | 5.46 | 0.897 | < 5.00 | 0.345 | 6.46
31 | MFM-223 (breast, adherent) | 0.729 | 5.55 | 0.989 | < 5.99 | 0.987 | < 4.99 | 0.943 | < 5.00 | 0.891 | < 4.80
32 | MHH-PREB-1 (B-cell leukaemia, suspension) | 0.535 | 6.10 | 0.988 | < 5.99 | 0.894 | 5.00 | 0.759 | 5.50 | 0.693 | 5.49
33 | ML-2 (acute myeloid leukaemia, suspension) | 0.953 | < 4.99 | 0.988 | < 5.99 | 0.788 | 5.40 | 0.926 | < 5.00 | 0.184 | 6.88
34 | MLMA (hairy cell leukaemia, semi-adherent) | 0.352 | 6.61 | 0.986 | < 5.99 | 0.917 | < 4.99 | 0.738 | 5.52 | 0.85 | 4.91
35 | MMAC-SF (melanoma, adherent) | 0.987 | < 4.99 | 0.983 | < 5.99 | 0.899 | < 4.99 | 0.832 | 5.17 | 0.794 | 5.11
36 | MN-60 (B-cell leukaemia, suspension) | 0.836 | 5.14 | 0.986 | < 5.99 | 0.957 | < 4.99 | 0.77 | 5.40 | 0.828 | 4.98
37 | MOLM-13 (acute myeloid leukaemia, suspension) | 0.092 | > 7.40 | 0.986 | < 5.99 | 0.745 | 5.52 | 0.775 | 5.43 | 0.674 | 5.53
38 | MOLP-8 (myeloma, suspension) | 0.661 | 5.75 | 0.981 | < 5.99 | 0.653 | 5.78 | 0.68 | 5.71 | 0.207 | 6.84
39 | MOLT-4 (lymphoblastic leukaemia, suspension) | 0.869 | 5.18 | 0.99 | < 5.99 | 0.924 | < 4.99 | 0.855 | 5.24 | 0.651 | 5.62
